Measurements as given in PubChem BioAssay AID485344 (National Center for Advancing Translational Sciences (NCATS), 2010).
The whole screen tested about 340,000 compounds, of which about 6,900 (2%) were called active. Cut-off read from the data, not from the text of the source: active = inhibition above about 30%; inactive = below that, where a call was filed. This is a selection; strong and weak results do not stand in their true shares. Where no call is shown, the source filed none.

Biological target: D(2) dopamine receptor (Homo sapiens) (UniProt P14416)
Assay: HTS Assay for Allosteric Antagonists of the Human D2 Dopamine Receptor: Primary Screen for Antagonists; note: 0% is about no effect
Settings: HEK293 TREx D2 cells, calcium flux, dopamine EC80; at 10 µM; stronger effect = higher value
Method in brief: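 Tetracycline-induced HEK293 TREx cells expressing D2 receptor forced-coupled to calcium signalling, loaded with no-wash calcium dye. Compounds added and calcium flux read 180 s, then dopamine added at EC80 and read a further 180 s.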

UniProt P14416, sequence (P14416 whole entry, looked up): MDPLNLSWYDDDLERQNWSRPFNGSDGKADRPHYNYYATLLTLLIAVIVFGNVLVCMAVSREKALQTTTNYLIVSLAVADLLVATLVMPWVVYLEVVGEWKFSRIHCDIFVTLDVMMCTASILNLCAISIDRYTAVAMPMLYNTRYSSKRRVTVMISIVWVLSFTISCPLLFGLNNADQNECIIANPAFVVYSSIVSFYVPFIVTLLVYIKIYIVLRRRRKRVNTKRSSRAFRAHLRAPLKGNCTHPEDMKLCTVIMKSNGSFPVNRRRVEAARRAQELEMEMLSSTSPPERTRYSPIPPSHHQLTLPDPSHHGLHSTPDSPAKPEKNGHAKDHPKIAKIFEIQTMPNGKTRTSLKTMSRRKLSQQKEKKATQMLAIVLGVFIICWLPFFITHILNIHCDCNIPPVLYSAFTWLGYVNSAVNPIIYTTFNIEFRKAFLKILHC

| Structure (SMILES) | inhibition |
| --- | --- |
| COC(=O)c1ccc(CSc2nc3ccncc3n2Cc2ccc(F)cc2)cc1 | -0.52% |
| COCC(C)Nc1ncnc2c1cnn2-c1cccc(Cl)c1 (stereo unspecified) | 3.51% |
| COc1ccc(C(=O)Oc2ccc(C3NC(=O)c4c(sc5c4CCN(C)C5)N3)cc2OC)cc1 (stereo unspecified) | 6.24% |
| COc1ccc(NC(=O)c2ccc3oc(=O)c(S(=O)(=O)c4ccc(F)cc4)cc3c2)c(OC)c1 | 11.3% |
| CC(C)c1nc2sc3c(N4CCCCC4)ncnc3c2c2c1CCCC2 | 1.81% |
| COc1ccc(CC(=O)Nc2ccc(-c3nc4ccccc4s3)c(C)c2)cc1 | 12% |
| CCOC(=O)c1cc(CC)sc1NC(=O)COc1ccccc1C | -2.25% |
| COc1ccc(C(=O)NCC(c2ccc3c(c2)OCO3)N2CCN(C)CC2)cc1OC (stereo unspecified) | 11.7% |
| Cc1cc(NC(=O)CN2CCC(O)CC2)nc2c1c(=O)oc1ccccc12 | -2.37% |
| CCN1CCN(c2ncnc3c2cnn3-c2ccc(F)cc2)CC1 | 15.4% |
| CCn1c(=O)n(CC2CCC(C(=O)NC(C)C)CC2)c(=O)c2sccc21 (stereo unspecified) | 7.25% |
| COc1ccc(NC(=O)CSc2c(C(C)C)cnc3c2c(=O)n(C)c(=O)n3C)c(OC)c1 | -15.4% |
| CC(C)CNc1cc(NC2CCCCC2)c2c3c(onc13)-c1ccccc1C2=O | 7.85% |
| Cc1ccc(Cl)cc1N1CCN(C(=O)c2cn(C)c3ccc(S(=O)(=O)N4CCCCC4)cc3c2=O)CC1 | 1.98% |
| O=S(=O)(Nc1cccc(-c2ccc(N3CCCCC3)nn2)c1)c1ccc(F)cc1F | -7.24% |
| COC(=O)CN1C(c2ccc(Cl)cc2)=Nc2ccc(Cl)cc2C1c1ccccc1 (stereo unspecified) | active: 48.9% |
| COc1cccc(CNCc2c(C(=O)O)c(C)n(Cc3ccc(F)cc3Cl)c2C)c1OC | 16.6% |
| CCSc1nc2sc3c(c2c(=O)n1-c1ccc(C)cc1)CCCC3 | 13.1% |
| O=C(CC1N=C2c3ccccc3N=C(SCc3cccc(F)c3)N2C1=O)NC1CCCCC1 (stereo unspecified) | 0.0924% |
| CCC(C(=O)NCCc1ccc(SC)cc1)n1nc(C)c2c(C)n(-c3ccc(C)cc3)nc2c1=O (stereo unspecified) | -6.66% |
| CCS(=O)(=O)N1Cc2ccccc2CC1C(=O)N(C)CC(=O)Nc1cccc(F)c1 (stereo unspecified) | active: 40.5% |

| Structure (SMILES) | inhibition |
| --- | --- |
| COc1cc(C2CC(=O)N(CC(=O)Nc3ccccc3F)c3ccccc3S2)cc(OC)c1OC (stereo unspecified) | -9.4% |
| O=C(Nc1ccc(F)cc1F)c1cc(-c2ccc3c(c2)OCO3)on1 | -3.99% |
| Cc1ccc(-n2nc(CO)c(C(=O)NC(C)c3ccccc3)n2)cc1C (stereo unspecified) | 14.1% |
| COC(=O)c1sc2ccccc2c1S(=O)(=O)N1CCN(c2ccc(C(C)=O)cc2)CC1 | 0.614% |
| Cc1ccc(CCNC(=O)c2ccc(CSc3nc4ccncc4n3Cc3ccc(F)cc3)cc2)cc1 | 14.1% |
| COC(=O)c1ccccc1NC(=O)CCc1c(C)nc2cc(-c3ccc(Cl)cc3)nn2c1C | -2.09% |
| Cc1cccc(OCC(=O)Nc2cccc(-c3nc4ccccc4s3)c2)c1 | -2.5% |
| CC(=O)c1cc(-c2ccc(F)cc2)n(CCC(=O)NC2CCCCC2)c1C | -0.826% |
| COc1cc(NC(=O)c2cc3cc4cc(OC)ccc4nc3o2)cc(OC)c1 | -1.21% |
| Fc1ccc(Cc2cn3cc(-c4ccc(F)cc4)nc3s2)cc1 | 13% |
| O=C(Cn1c(=O)n(Cc2ccco2)c(=O)c2sc3ccccc3c21)Nc1ccccc1C(F)(F)F | 9.74% |
| CCOc1ccccc1NC(=O)c1ccc(C(=O)Nc2ccccc2OCC)cc1 | -6.71% |
| Cc1nc2nc(C)c(CCC(=O)NCc3cccc(Cl)c3)c(C)n2n1 | -13.6% |
| COc1ccc(C2=C(C(C)=O)Sc3nnc(-c4ccccc4)n3N2C(C)=O)cc1 | 22.9% |
| CC(=O)NCCNC(=O)c1ccc2c(=O)n(CCc3ccccc3)c(=O)[nH]c2c1 | 7.67% |
| CSc1ncc(C(=O)N2CCN(c3ccc(Cl)cc3)CC2)c(C)n1 | 25.8% |
| CCc1nn(CC(=O)NCCCN2CCN(C)CC2)c(=O)c2cc3occc3n12 | 8.07% |
| COc1ccc(C(=O)c2c(N)c(-c3nc(-c4ccccc4)cs3)c3ccccn23)cc1 | -2.02% |
| COc1ccc(S(=O)(=O)NCC(c2ccc3c(c2)OCO3)N2CCN(c3ccccc3)CC2)cc1 (stereo unspecified) | active: 72.8% |
| COc1ccc(C)cc1NC(=O)c1oc2ccc(S(=O)(=O)N3CCOCC3)cc2c1C | -16.6% |
| CSc1cccc(NC(=O)CC(c2ccc(F)cc2)N2Cc3ccccc3C2=O)c1 (stereo unspecified) | -15.1% |

| Structure (SMILES) | inhibition |
| --- | --- |
| COc1ccc(OC)c(NC(=O)CSC2=Nc3ccccc3C3=NC(CCC(=O)NC4CCCCC4)C(=O)N23)c1 (stereo unspecified) | -24.5% |
| COC(=O)c1c(NC(=O)COc2ccc(Cl)cc2C)sc2c1CCCCC2 | -7.81% |
| O=[N+]([O-])c1ccc(CN2CCN(c3ncccn3)CC2)cc1 | active: 85% |
| COc1ccc(N2CCN(C(=O)CCc3c(C)nc4cc(-c5cccc(F)c5)nn4c3C)CC2)cc1 | 26.6% |
| Cc1ccccc1C(=O)N1CCCCC1CCN1CCCCC1 (stereo unspecified) | -12.6% |
| Cc1ccc(/C=C/c2nc3ccccc3n2S(=O)(=O)c2ccc(Br)cc2)cc1 | 6.18% |
| CC(=O)N1CCc2c(sc3c2c(=O)n(-c2ccccc2)c(=O)n3Cc2cccc(C(F)(F)F)c2)C1 | -5.03% |
| CCOC(=O)c1cnc2c(ccc3ccccc32)c1Nc1ccc(OC)cc1OC | -2.03% |
| COc1cccc(N=C2SC(C(=O)Nc3cccc(Cl)c3)CC(=O)N2C)c1 (stereo unspecified) | -17.7% |
| COc1cc(C2=Nc3ccc(Br)cc3C(c3ccccc3)N2CC(=O)NN)cc(OC)c1OC (stereo unspecified) | active: 86.1% |
| CCCn1c2ccccc2c2cnn(CC(=O)NC3CCCC(C)C3C)c(=O)c21 (stereo unspecified) | active: 34.8% |
| Cc1ccc(CCNS(=O)(=O)c2ccc3c(c2)CCN3C(=O)CCC(=O)O)cc1 | 14.1% |
| O=C(NCCNC1CCC(c2ccccc2)CC1)c1cccs1 (stereo unspecified) | active: 48.2% |
| CCc1ccc(NC(=O)CCc2c(C)n(C)c3cc(-c4ccccc4C)nn3c2=O)cc1 | -4.88% |
| Cc1cccc(N2CCN(C(=O)CCCn3ncn4c(cc5occc54)c3=O)CC2)c1C | 5.71% |
| Cn1c(=O)n(C)c2cc(N3CCOCC3)c(NS(=O)(=O)c3ccc(Br)cc3)cc21 | 0.283% |
| O=C(NCC(c1cccnc1)N1CCc2ccccc2C1)C(=O)Nc1cccc(Cl)c1 (stereo unspecified) | 8.06% |
| O=C(Cc1ccc(F)cc1)Nc1cccc(-c2nc3cccnc3s2)c1 | 2.93% |
| COc1ccc(-c2cc(C(=O)NCCc3ccccc3)c3c(-c4ccccc4)[nH]nc3n2)cc1 | 0.871% |
